{"source": "PubChem BioAssay AID488969", "about": "(Vanderbilt High Throughput Screening Facility, 2010)", "note": "Whole data set: some 110,000 compounds, median “z-score” near -0.1, cut for the highest 2% near 2. The list shows a part of the results. Calls of active or inactive are those of the source.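 Rule for the calls: active = z-score in the third read window above 3 or below -3; inactive = the rest.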"}
{"target": "Metabotropic glutamate receptor 8 (Rattus norvegicus) (UniProt P70579)", "sequence (P70579 whole entry, looked up)": "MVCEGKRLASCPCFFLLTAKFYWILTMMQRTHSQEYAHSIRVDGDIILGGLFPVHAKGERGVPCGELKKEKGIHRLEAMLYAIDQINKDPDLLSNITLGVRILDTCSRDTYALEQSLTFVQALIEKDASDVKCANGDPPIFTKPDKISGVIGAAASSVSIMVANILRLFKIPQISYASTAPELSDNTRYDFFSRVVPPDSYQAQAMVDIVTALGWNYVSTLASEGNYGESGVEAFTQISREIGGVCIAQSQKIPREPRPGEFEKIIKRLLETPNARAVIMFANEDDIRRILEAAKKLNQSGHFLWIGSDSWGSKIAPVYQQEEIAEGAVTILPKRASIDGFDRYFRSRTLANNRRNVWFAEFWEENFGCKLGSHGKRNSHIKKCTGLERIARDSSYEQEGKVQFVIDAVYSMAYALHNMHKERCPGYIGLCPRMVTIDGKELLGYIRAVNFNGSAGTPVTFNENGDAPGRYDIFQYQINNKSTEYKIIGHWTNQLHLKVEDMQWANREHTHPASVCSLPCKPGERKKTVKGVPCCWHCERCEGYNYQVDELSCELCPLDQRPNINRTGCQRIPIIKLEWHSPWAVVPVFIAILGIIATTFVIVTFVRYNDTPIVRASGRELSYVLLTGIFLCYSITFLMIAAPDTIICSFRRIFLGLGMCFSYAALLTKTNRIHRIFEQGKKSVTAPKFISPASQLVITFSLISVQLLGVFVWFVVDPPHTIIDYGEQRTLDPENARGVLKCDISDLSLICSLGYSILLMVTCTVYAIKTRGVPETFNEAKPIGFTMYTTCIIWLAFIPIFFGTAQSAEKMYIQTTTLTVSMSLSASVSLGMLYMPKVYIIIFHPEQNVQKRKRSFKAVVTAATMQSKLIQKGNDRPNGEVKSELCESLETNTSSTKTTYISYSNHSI", "assay": "mGluR8 Gi/Go-coupled signaling modulation – cell-based, rat, thallium flux, HTS, primary screen (AID 488969)", "settings": "HEK293 rat mGluR8, GIRK (G protein-gated inwardly rectifying potassium channel) thallium flux, FluoZin2; at 10 µM; stronger effect = higher value; submaximal glutamate (EC20) added with thallium"}
{"smiles": "COC(=O)CSc1nnnn1-c1cccc2ccccc12", "z-score": 0.0336}
{"smiles": "CC(=O)NC(Cc1ccc(C)cc1)C(=O)NC1CCN(c2ncccc2[N+](=O)[O-])CC1", "note": "(stereo unspecified)", "z-score": -0.795}
{"smiles": "Cc1cc(C)n(CCCNC(=O)c2ccc(S(=O)(=O)NCc3ccco3)cc2)n1", "z-score": -0.419}
{"smiles": "O=C(CCN1C(=O)c2ccncc2C1=O)NCc1ccc(Cl)cc1", "z-score": -0.16}
{"smiles": "Nc1ccc(CN2CCCCCC2)cc1", "z-score": 0.0779}
{"smiles": "COc1cccc(NC(=O)/C=C/c2ccccc2[N+](=O)[O-])c1", "z-score": -0.159}
{"smiles": "O=C(c1oc2ccccc2c1N1CCCCC1)N1CCCCC1", "z-score": -0.448}
{"smiles": "Cn1c(NC(=O)c2ccccc2C(F)(F)F)cc(=O)n(C)c1=O", "z-score": -0.131}
{"smiles": "Cc1ccc(-n2ncc3c(SCc4ccccc4)ncnc32)cc1", "z-score": 2.51}
{"smiles": "Cc1ccc(S(=O)(=O)N(C)Cc2ccc(C(=O)NN=C3C4CC5CC(C4)CC3C5)cc2)cc1", "z-score": -0.0811}
{"smiles": "CC1CC(=O)Nc2ccccc2N1S(=O)(=O)c1ccccc1", "note": "(stereo unspecified)", "z-score": -0.117}
{"smiles": "Cc1cc(C)cc(N(C(=O)Cc2cccs2)C(C(=O)NC2CCCC2)c2ccc(C)o2)c1", "note": "(stereo unspecified)", "z-score": 0.227}
{"smiles": "CCOC(=O)C1=C(O)/C(=C/c2ccc(OCC(=O)O)c(OC)c2)SC1=Nc1ccc(OCC)cc1", "z-score": -0.258}
{"smiles": "Cn1c(=NCC(O)COc2ccccc2)sc2ccccc21", "note": "(stereo unspecified)", "z-score": 2.27}
{"smiles": "NS(=O)(=O)c1cc(C(=O)OCC(=O)NC2CC2)ccc1Cl", "z-score": -0.103}
{"smiles": "COc1ccc(-c2cn3cc(C)ccc3n2)cc1Br", "z-score": -0.219}
{"smiles": "CC(=O)c1ccc(Nc2ncnc3c2oc2ccccc23)cc1", "z-score": 0.117}
{"smiles": "Cn1c(=O)[nH]c(=O)c2c1nc(N1CCOCC1)n2CC(O)COc1ccccc1", "note": "(stereo unspecified)", "z-score": -0.1}
{"smiles": "Cc1sc(NC(=O)CCl)c(C(=O)c2ccccc2)c1C", "z-score": -0.412}
{"smiles": "COC(=O)c1cc2oc(C)cc2n1CC(=O)Nc1cc(C)cc(C)c1", "z-score": -0.162}
{"smiles": "COc1ccc(/C=N/n2c(=S)n(C)c3ccccc32)cc1OC", "z-score": 0.103}
{"smiles": "COC(=O)N/N=C/c1cc(C)n(-c2ccccc2)c1C", "z-score": -0.625}
{"smiles": "COc1cc(Cl)c(C)cc1NC(=O)CSCC#N", "z-score": -0.0531}
{"smiles": "CCOC(=O)CCCCC(=O)c1[nH]c(=O)[nH]c1Cn1ccnc1", "z-score": -0.187}
{"smiles": "CC(C)CCNC(=O)C(Cc1ccccc1)NS(=O)(=O)c1ccc2c(c1)c(=O)n(C)c(=O)n2C", "note": "(stereo unspecified)", "z-score": -0.042}
{"smiles": "COc1ccccc1NC(=O)CSc1nnc(-c2ccoc2C)n1CC1CCCO1", "note": "(stereo unspecified)", "z-score": 0.0563}
{"smiles": "COc1ccccc1N1CCN(C(CNS(=O)(=O)c2ccccc2)c2cccnc2)CC1", "note": "(stereo unspecified)", "z-score": 0.243}
{"smiles": "CCCCONc1ncnc2nonc12", "z-score": -0.0533}
{"smiles": "COc1cccc(-n2c(Cc3cc(=O)[nH]c(=O)[nH]3)nnc2SCC(=O)NC2CCCC2)c1", "z-score": -0.174}
{"smiles": "Cc1ccc(NC(=O)C2CCN(C(=O)NC3CCCCC3)CC2)c(C)c1", "z-score": -0.299}
{"smiles": "COc1cc(/C=C(\\C#N)c2ccccn2)ccc1OCc1ccccc1", "z-score": -0.538}
{"smiles": "O=C(CCCNS(=O)(=O)c1cccc2nsnc12)NCc1ccccc1", "z-score": -0.246}
{"smiles": "Cc1cc(NC(=O)CSc2nnc(COc3ccccc3)o2)no1", "z-score": -0.183}
{"smiles": "CCOC(=O)c1c(NC(=O)Cn2cc([N+](=O)[O-])cn2)sc2c1CCC2", "z-score": -0.237}
{"smiles": "COc1ccc(C(F)(F)F)cc1N/C=C\\c1nnnn1-c1ccccc1", "z-score": -0.227}
{"smiles": "O=C(O)CSC1c2ccccc2C(=O)N1c1ccccc1", "note": "(stereo unspecified)", "z-score": -0.372}
{"smiles": "COc1ccc(C2CC3(CC(C)(C)NC(=O)N3)Oc3cc(O)ccc32)cc1", "note": "(stereo unspecified)", "z-score": -0.213}
{"smiles": "CC1(C)NC(=O)N(CC(=O)O)C1=O", "z-score": -0.182}
{"smiles": "CC(=O)c1ccc(NC(=O)N2CCN(c3cccc(Cl)c3)CC2)cc1", "z-score": -0.649}
{"smiles": "Cc1ccc(OCC(=O)NNC(=O)CCC(=O)Nc2ccc(C)cc2C)cc1", "z-score": -0.223}
{"smiles": "COc1cnc(-c2ccccn2)nc1Oc1ccc(Cl)c2ccccc12", "z-score": 0.173}
{"smiles": "CC(C)(C)c1ccc(C(=O)NNC(=O)C(=O)N2CCCCC2)cc1", "z-score": 0.478}
{"smiles": "Cc1c(-c2c(C#N)c(N)nc3c2CCCCCC3)cnn1C", "z-score": 0.297}
{"smiles": "COc1ccc(C(=S)Nc2ccccc2)cc1", "z-score": -0.78}
{"smiles": "CCOc1cccc(C2c3c(oc4cc(C)c(C)cc4c3=O)C(=O)N2CCCN(C)C)c1", "note": "(stereo unspecified)", "z-score": -0.527}
{"smiles": "O=C(CSc1ccccn1)N1CCN(c2ccc(Cl)cc2)CC1", "z-score": -0.69}
{"smiles": "COc1ccc(/C=C2\\SC(=O)N(CCNC(=O)Cc3coc4cc(C)ccc34)C2=O)cc1OC", "z-score": -0.439}
{"smiles": "CCOC(=O)c1nn(-c2ccc(OCC)cc2)c(C)c1C(C)=O", "z-score": 0.0801}
{"smiles": "Cc1ccc(NC(=O)CSc2nccn2Cc2ccccc2)cc1C", "z-score": -0.465}
{"smiles": "O=C1C2C3C=CC(CC3)C2C(=O)N1/N=C/c1ccc(O)cc1", "note": "(stereo unspecified)", "z-score": 0.154}
{"smiles": "O=C(O)c1ccc(S(=O)(=O)NC2CCCc3ccccc32)cc1", "note": "(stereo unspecified)", "z-score": 0.205}
{"smiles": "COC(=O)c1ccc(OCCOc2ccc(C(=O)OC)cc2)cc1", "z-score": 0.0695}
{"smiles": "Fc1cc(F)c2nc(Nc3nc4c(F)cccc4s3)sc2c1", "z-score": "active: 9.18"}
{"smiles": "Fc1ccc(C2C3=C(Nc4ncnn42)c2ccccc2OC3c2ccncc2)cc1", "note": "(stereo unspecified)", "z-score": -0.692}
{"smiles": "CN1CCc2c(C#N)c(N3CCCCC3)nc(NCc3ccccc3)c2C1", "z-score": -0.559}
{"smiles": "CN(C)c1ccc(NC(=O)N2CCOCC2)cc1", "z-score": -0.0524}
{"smiles": "COC(=O)CNc1c(-c2ccccn2)nc2ccc(Br)cn12", "z-score": -0.134}
{"smiles": "COc1cc2[nH]c(=O)n(CCC(=O)N3CCc4ccccc4C3)c(=O)c2cc1OC", "z-score": 1.38}
{"smiles": "Cc1cccnc1NC(=O)C1CCN(S(=O)(=O)c2c(C)noc2/C=C/c2ccco2)CC1", "z-score": -0.314}
{"smiles": "CC(C)CC(NC(=O)C1CCC(C)CC1)C(=O)NCc1cccnc1", "note": "(stereo unspecified)", "z-score": -0.402}
{"smiles": "CCn1c(O)c(N=NC(=O)CNc2cccc(C)c2)c2ccccc21", "z-score": 1.4}
{"smiles": "Cc1ccc(OCCNC(=O)c2ccccc2N)cc1", "z-score": -1.75}
{"smiles": "CC(C)c1ccc(NC(=O)COC(=O)[C@H](CCC(N)=O)NC(=O)c2ccc(F)cc2)cc1", "z-score": -0.441}
{"smiles": "O=C(CCC(=O)N1CCN(C2CCCC2)CC1)Nc1nnc(C(F)(F)F)s1", "z-score": -0.0144}
{"smiles": "CCOc1ccc(CN2CCNC(=O)C2CC(=O)OC)cc1", "note": "(stereo unspecified)", "z-score": -0.257}
{"smiles": "O=C(CCCn1c(=S)[nH]c2ccsc2c1=O)NCc1ccco1", "z-score": -0.0898}
{"smiles": "Cc1nc(-c2cccnc2)sc1C(=O)Nc1ccc(F)cc1F", "z-score": -0.515}
{"smiles": "COc1ccc(C(=O)OCCNC(=O)c2c(Cl)nc3ccccn23)cc1", "z-score": -1.08}
{"smiles": "Cc1ccc(C(=O)OCC(=O)Nc2ccc(N(C)C)cc2)cc1NC(=O)c1ccco1", "z-score": -0.348}
{"smiles": "c1ccc(COc2ccc(CNCc3cccs3)cc2)cc1", "z-score": 0.222}
{"smiles": "COc1ccccc1Oc1coc2c(CN3CCN(C)CC3)c(O)ccc2c1=O", "z-score": 0.224}
